PubChem BioAssay AID1508642 (National Center for Advancing Translational Sciences (NCATS), 2021)
Screen size: about 43,000 compounds; about 200 (0.47%) were called active. Another 12% or so got no clear call; they are omitted. Calls come from the whole dose curve; as a rule, active = well fitted cell-killing curve with a large enough effect; inconclusive = small, poorly fitted or top-dose-only effect, or effect the other way; inactive = flat fitted curve, though single readings scatter. The list shows a part of the results.

Experiment: Cell viability qHTS assay in S16 Pmp22-F2sN cells; note: nearly all actives have a fitted effect of over 65% in size
Conditions: S16 Pmp22-F2sN Schwann cells (luciferase reporters placed in the Pmp22 gene) viability, CellTiter-Glo, 24 h; series mostly up to 57.5 µM; activity change, negative = cytotoxicity: at the top concentration
Text: Assay Provider: Jim Inglese Ph.D. National Center for Advancing Translational Science, National Institutes of Health, Rockville, MD CMT is a heterogeneous group of neurological disorders that affect approximately 1 in 2,500 people. In particular, the most common form of CMT, CMT1A is genetically linked to the duplication of the PMP22 gene which leads to Schwann cell overexpression, thus manifesting itself as a typical case of dose-sensitive diseases. To identify small molecule compounds that can mediate the expression of PMP22 we developed a phenotypic assay screening strategy by utilizing genome editing techniques to construct Schwann cell lines containing novel reporter technology to monitor the transcriptional or translational regulation of PMP22. For high sensitivity we use a bioluminescent reporter system embedded in the 3' UTR of the PMP22 gene (S16(c9) Pmp22-F2sN) to identify compounds that inhibit gene expression. […] We can further discriminate the effect of all transcriptionally active molecules on PMP22 translation or stability with an assay that incorporates a short NLuc peptide (HiBiT) at the C-terminus of expressed PMP22 (S16(f8) PMP22-HiBiT) allowing alpha complementation and luminescence detection of membrane-associated PMP22 protein. These assays were screened against the NCATS Sytravon Library Collection. Miniaturization of these assays to 1536-well plate format for quantitative high throughput screening (qHTS) yielded rich data sets immediately from the qHTS assay (S16(c9) Pmp22-F2sN), when compared with data from a cell viability assay (Cell TiterGlo) to identify compounds that decreased the output signals through cellular toxicity to streamline the selection process of actives for subsequent characterization using the HiBiT assay (S16(f8) PMP22-HiBiT).
Cell viability assay in S16 Pmp22-F2sN cells PROTOCOL TABLE (format as described by Inglese J, Shamu CE and Guy RK. 2007) SEQUENCE No. (e.g., 1, 2, 3, etc.); […] (e.g., Cells, Incubation, Reagent, etc.); VALUE and DESCRIPTION. 1. Cells. Add 500-1,000 cells in 4 uL in growth media (DMEM High Glucose, No Phenol Red media + 10% heat-inactivated FBS + 1% Pen/Strep supplemented media) per well into Greiner 1536-well white/solid bottom high base, TC-treated plates. 2. Compounds. Library compounds and controls added at 23nL per well, transferred by Pin Tool. 3. Incubation. Incubate plates at 37C, 5% CO2, 95% RH for 24 h. 4. Reagent. Add 3uL CellTiter-Glo per well of Greiner 1536-well plates. 5. Incubation. Incubate plates at room temperature for 15 min., protect from light. 6. Detector. FLuc luminescence measured using CCD-based camera (Viewlux). NOTES (numbers refer to Sequence numbers above; values are from representative experiments) 6. Luminescence Read: Clear filter; Exposure = 1 sec, Gain = High, Speed = Slow, Binning = 2X REFERENCES: 1. Inglese J, Shamu CE and Guy RK, Reporting data from high throughput screening of small molecule libraries, Nature Chemical Biology, 2007, 3(8): 438-441. doi.org/10.1038/nchembio0807-438 2. Yasgar A, Shinn P, Jadhav A, Auld DS, Michael S, Zheng W, Austin CP, Inglese J and Simeonov A, Compound Management for Quantitative High-Throughput Screening. J. Assoc. Lab. Auto., 2008, 13: 79-89. doi: 10.1016/j.jala.2007.12.004
% is set by controls: 0 for no effect and ±100 for the full control effect; potency is the fitted concentration of half-maximal effect.

Structure (SMILES)	activity change, negative = cytotoxicity	Potency
COc1cccc(-c2nc(S(=O)(=O)c3ccc(C)cc3)c(NCc3ccccc3)o2)c1	inactive: 26.3%	
CCN1CCN(c2cc(C)c3cc(NC(=O)c4cc(OC)c(OC)c(OC)c4)ccc3n2)CC1	inactive: -18.5%	
CCOc1ccc(-c2nc(CSCC(=O)NCCc3ccccc3)c(C)o2)cc1	inactive: -28.8%	
Clc1cccc(N2CCN(c3nc4ccccc4c4nc(-c5ccccc5)nn34)CC2)c1	inactive: 4.87%	
COc1ccc(-c2cc(C(C)=O)c(C)n2CCC(=O)Nc2cccc(C)c2C)cc1	inactive: -0.713%	
O=C(Cn1c2ncccc2c(=O)n1-c1ccccc1)Nc1cccc(C(F)(F)F)c1	inactive: 6.23%	
O=C(CSc1nc2ccccc2c2nc(-c3ccccc3)nn12)Nc1ccc(F)cc1	inactive: -0.484%	
Cc1ccc(Cn2c3ccccc3c3cnn(CC(=O)N4CCCCCC4)c(=O)c32)cc1	inactive: 16.7%	
Cc1ccc(CN2C(=O)CC(c3ccc(Cl)cc3)c3c(C)nn(-c4nc(C)cc(C)n4)c32)cc1 (centres undefined)	inactive: -22%	
COc1ccc(-n2nc3c(c2NC(=O)C(=O)NCc2ccccc2)CSC3)cc1	inactive: -4.75%	
COc1ccc(N2CCN(C(=O)CCc3nnc4n(C)c(=O)c5sccc5n34)CC2)cc1	inactive: 14.8%	
COc1ccc(-n2c(=O)c3ccc(C(=O)NCc4ccc(C)cc4)cc3n(Cc3ccc(F)cc3Cl)c2=O)cc1	inactive: 17.7%	
CC1(C)N=C(c2ccc(F)cc2)C(=O)N1CC(=O)Nc1ccccc1Cl	inactive: 2.26%	
COC(=O)c1cc2oc(C)cc2n1CC(=O)Nc1ccc(OC)c(OC)c1	inactive: -1.45%	
COC(=O)c1ccc(NC(=O)CSc2nccn2Cc2ccc(Cl)cc2)cc1	inactive: 7.76%	
COC(=O)c1sc(S(=O)(=O)N2CCN(c3ccc(OC)cc3)CC2)c(C(=O)OC)c1C	inactive: 4.97%	
COc1ccc(CNC(=O)C(=O)Nc2ccccc2OC)cc1	inactive: -0.385%	
Cc1cc(O)c(C(c2ccccc2)N2CCN(c3ccccc3F)CC2)c(=O)n1Cc1ccco1 (centres undefined)	inactive: 5.6%	
CCC(=O)N1CCc2cc(Br)cc(S(=O)(=O)CCC(=O)NCc3ccc(C)cc3)c21	inactive: 7.84%	
COc1cc(NC(=O)CN2C(=O)C(c3ccc(C)cc3)=NC23CCCCCC3)cc(OC)c1	inactive: -7.89%	
CC(=O)Nc1c(C)nn(-c2ccccc2)c1N1CCC(C(=O)Nc2ccc(Cl)cc2C)CC1	inactive: -2.27%	
COc1ccc(OC)c(NC(=O)CSc2nccn2-c2cc(C)cc(C)c2)c1	inactive: -7.02%	
Cc1ccc2oc(=O)c3cc(C(=O)NCc4ccc(Cl)cc4)sc3c2c1	inactive: 19.6%	
Cc1ccc(NC(=O)C2CCCN2S(=O)(=O)c2cccc3nsnc23)c(Br)c1 (centres undefined)	inactive: -4.49%	

Structure (SMILES)	activity change, negative = cytotoxicity	Potency
Cc1ccc(CN2CCc3nc(N4CCN(c5ccccc5F)CC4)ncc3C2)s1	inactive: -0.836%	
COc1ccc(-c2csc3nc(-c4ccc(F)cc4)oc(=O)c23)cc1OC	inactive: 17.8%	
Cc1cccc(C)c1NC(=O)CCS(=O)(=O)c1ccc2c(c1)n(C)c(=O)c(=O)n2C	inactive: 4.26%	
Cc1cccc(-c2nc(C)c(CCNC(=O)C(=O)Nc3c(C)cc(C)cc3C)s2)c1	inactive: 11.8%	
Cc1cc(SCC(=O)NCc2ccccc2Cl)nc(=O)[nH]1	inactive: -0.228%	
COC(=O)c1ccccc1NC(=O)Cn1c(=O)cc(-c2ccccc2)c2c(C)nn(C)c21	inactive: 3.17%	
CCOC(=O)c1sc2ncn(CC(=O)Nc3cc(C)cc(C)c3)c(=O)c2c1C	inactive: -5.72%	
CCN(CC)C(=O)Cn1c(=O)n(CCCCCC(=O)Nc2ccccc2)c(=O)c2sccc21	inactive: 7.11%	
O=C(NCc1ccccc1F)c1cc2ccccn2n1	inactive: -16.3%	
CCOc1ccc2oc(=O)cc(CN3CCN(C(=O)c4cccc(Cl)c4)CC3)c2c1	inactive: -2.44%	
Cc1ccccc1C(=O)Nc1cccc(C(=O)OCc2cc(=O)n3c(C)csc3n2)c1	inactive: -10.5%	
COc1ccc(CNC(=O)c2ccc(NC(=O)N3CCSc4ncccc43)cc2)c(OC)c1	inactive: 0.837%	
Cc1ccc(C)c(Nc2nn3c(=O)c4ccc(C(=O)N(C)Cc5ccccc5)cc4nc3s2)c1	inactive: -0.834%	
COc1ccc(NC(=O)c2cc(C(C)=O)n3ccccc23)cc1Cl	inactive: 14.4%	
COc1ccc2c(CNCc3cccs3)c(C(=O)O)n(Cc3cccc(F)c3)c2c1	inactive: -13.6%	
COC(=O)c1ccccc1NC(=O)c1sc2nc(C)cc(C)c2c1NC(=O)c1ccccc1Cl	inactive: 12.8%	
Cc1cc(/C=C(\C#N)C(=O)Nc2ccccc2)c(C)n1-c1ccc(F)cc1	inactive: -1.73%	
COc1cc(NC(=O)c2nc(-c3ccc(Cl)cc3)n3c2CCCCC3)cc(OC)c1OC	inactive: -5.58%	
O=C(Cc1ccccc1)Nc1sc2c(c1C(=O)Nc1ccccc1Cl)CCCC2	inactive: 8.59%	
COc1ccc(CNC(=O)c2cc(C3CC3)nc3c2c(C)nn3-c2cccc(Cl)c2C)cc1	inactive: -0.257%	
COc1ccc(OC)c(-c2nnc3n(CCc4ccccc4)c(=O)c4ccccc4n23)c1	inactive: 9.92%	
CCn1c(=O)n(-c2ccc3c(c2)OCO3)c2nc(-c3cc(OC)ccc3OC)nc(C(N)=O)c21	inactive: -6.31%	
COc1ccc(CNC(=O)Cn2ccc3cc(S(=O)(=O)N4CCCC4)ccc32)c(OC)c1	inactive: -19.2%	
CC(CNC(=O)c1ccc2nc(CCc3ccccc3)oc2c1)c1ccccc1 (centres undefined)	inactive: 4.1%	

Structure (SMILES)	activity change, negative = cytotoxicity	Potency
COc1ccc(NC(=O)c2ncoc2-c2ccco2)cc1Cl	inactive: -6.16%	
CCOC(=O)c1cccc(NC(=O)C2CCN(S(=O)(=O)c3c(C)noc3/C=C/c3ccc(C)cc3)CC2)c1	inactive: 13.1%	
CCOC(=O)c1[nH]c(C)c(CCC(=O)NCc2ccc(OC(C)C)cc2)c1C	inactive: -20.8%	
COc1ccc(C)cc1NC(=O)C1CCN(S(=O)(=O)c2cccc3nonc23)CC1	inactive: 13.8%	
COC(=O)c1ccccc1NC(=O)N(Cc1ccc(C)cc1)Cc1cccn1-c1nnc(N2CCCC2=O)s1	inactive: -0.778%	
Cc1cccc(NC(=O)CSc2nnc3c4ccccc4n(C)c3n2)c1	inactive: 6.99%	
CCc1ccc(S(=O)(=O)c2cn(CC(=O)Nc3cccc(C)c3)c3ccc(Cl)cc3c2=O)cc1	inactive: -1.03%	
Cc1cc(Nc2cccc(O)c2)c2cccc(Br)c2n1	inactive: -5.99%	
Cc1sc2ncn(CC(=O)Nc3ccc(C(F)(F)F)cc3)c(=O)c2c1S(=O)(=O)N1CCN(C)CC1	inactive: -17.8%	
COc1nnc(-c2ccc(N3CCCCC3)c(NC(=O)c3ccc(Cl)cc3)c2)c2ccccc12	inactive: 3.48%	
COc1ccc(-c2cc(C(F)(F)F)nc(SCC(=O)Nc3ccc(C(C)=O)cc3)n2)cc1	inactive: 23.7%	
CCOC(=O)C1CCN(c2ncnc3c2c(-c2ccccc2)cn3-c2ccc(C)c(Cl)c2)CC1	inactive: -1.01%	
CCc1cc(=O)[nH]c(SCc2nc(-c3ccccc3C)no2)n1	inactive: 3.74%	
Cc1cc(C)cc(N2C(=O)CS(=O)(=O)C23C(=O)N(Cc2ccccc2)c2ccccc23)c1 (centres undefined)	inactive: 6.08%	
Cc1cc(OCC(=O)Nc2ncn[nH]2)c(C)c(C)c1Br	inactive: 3.42%	
CCC(=O)N1c2ccc(S(=O)(=O)NCCc3ccccc3)cc2CC1C (centres undefined)	inactive: -6.74%	
COc1ccc(OC)c(NC(=O)c2nc(SCc3ccc(F)cc3)ncc2Cl)c1	inactive: 2.49%	
O=C(NCCc1csc(-c2ccc(F)cc2)n1)C(=O)Nc1ccc(Cl)cc1	inactive: 0.774%	
CCC(C)NC(=O)C1CCN(S(=O)(=O)c2ccc3c(ccn3CC)c2)CC1 (centres undefined)	inactive: -7.86%	
Cc1nc2c(C(=O)NCCC(C)C)cnn2c(C)c1Cc1c(F)cccc1Cl	inactive: -3.57%	
COc1ccc2c(c1)c1c(c(=O)n(-c3ccc(C)cc3)c(=O)n1CC(=O)Nc1cc(C)ccc1C)n2C	inactive: 5.88%	
CC1CCCN(Cc2c(O)ccc3c(=O)c(-c4ccc(Cl)cc4)c(C(F)(F)F)oc23)C1 (centres undefined)	inactive: 23.3%	
COc1cc2c(cc1OC)C(c1cc(OC)c(O)c(OC)c1)CC(=O)N2 (centres undefined)	inactive: 4.97%	
COc1cccc2sc(N(Cc3cccnc3)C(=O)c3ccc(S(=O)(=O)N(C)C)cc3)nc12	inactive: -23.9%	

Structure (SMILES)	activity change, negative = cytotoxicity	Potency
O=C(O)c1ccccc1NC(=O)N1c2ccccc2Sc2ccccc21	inactive: 4.27%	
COc1ccccc1CNC(=O)c1cc2cc(S(=O)(=O)N3CCCCC3)ccc2n1C	inactive: -10.6%	
CCOC(=O)C1CCCN(C(=O)C2CCN(S(=O)(=O)c3c(C)noc3/C=C/c3ccc(C)cc3)CC2)C1 (centres undefined)	inactive: 23%	
COc1ccc(C(=O)Nc2cccc(-c3nc4cccnc4s3)c2C)c(OC)c1	inactive: 4.32%	
CCOC(=O)c1ccccc1NC(=O)Cn1c(=O)n(Cc2ccc(C(=O)NCc3ccc4c(c3)OCO4)cc2)c(=O)c2ccccc21	inactive: -6.24%	
CCOc1ccc(NC(=O)C2CCCN(S(=O)(=O)c3ccc(Br)s3)C2)cc1 (centres undefined)	inactive: -2.79%	
Cc1ccc(-c2c(C)n3c4c(=O)n(C)c(=O)n(C)c4nc3n2CCCO)cc1		active: 31.6 µM
O=C(CSc1nc2c([nH]c3ccccc32)c(=O)n1-c1ccccc1)Nc1ccccc1F	inactive: 12.2%	
O=C(CCn1cnnn1)Nc1ccccc1	inactive: 0.108%	
COCCCNC(=O)C1CCN(c2ncnc3c2nc2n3CCCCC2)CC1	inactive: 1.16%	
COc1ccc(-c2nc(C)c(CCNC(=O)c3ccccc3Br)s2)cc1OC	inactive: -17.9%	
COc1cccc(Cn2cnc3c2c(=O)n(C)c(=O)n3C)c1	inactive: -28.1%	
CC(=O)N1CCCc2cc(S(=O)(=O)N3CCC(N(C)C(C)C)CC3)ccc21	inactive: 0.282%	
Cc1cccc(C(=O)NC(=O)Nc2ccc(-n3nc(C(F)(F)F)cc3C(F)(F)F)cc2)c1	inactive: 1.62%	
CCOc1ccc(NC(=O)c2ccc3nc(Cc4ccccc4)oc3c2)cc1	inactive: -9.65%	
Cc1ccc2oc(C(=O)Nc3sc4c(c3C(=O)NCc3ccccc3)CCCC4)cc(=O)c2c1	inactive: -8.68%	
CCc1cccc(-n2c(=O)c3cccnc3n2CC(=O)Nc2ccccc2C(=O)OC)c1	inactive: 0.0522%	
N#CC1=C2SCN(C3CCCCC3)CN2C(=O)CC1c1ccc(F)cc1 (centres undefined)	inactive: -3.25%	
CCC(=O)N1CCc2cc(S(=O)(=O)NC(Cc3ccccc3)C(=O)NCc3ccc(F)cc3)ccc21 (centres undefined)	inactive: 7.29%	
Cc1ccccc1NC(=O)N1CCC(CN2CCCC2)CC1	inactive: 15.8%	
Cc1ccc(OCC(=O)OCc2cc(=O)n3c(C)csc3n2)cc1	inactive: 1.62%	
COc1ccc(-n2nc3cc(C)c(NC(=O)c4ccc(C)cc4C)cc3n2)cc1Cl	inactive: 1.83%	
